Measurements from PubChem BioAssay AID504832 (National Center for Advancing Translational Sciences (NCATS), 2011).
“And” between values parts separate entries of the source, which are not always exact repeats. Equal values may be shown once. Screen size: about 310,000 compounds; about 18,000 (5.8%) were called active. Inconclusive results, whose numbers are uncertain, are shown with a selection of clear calls. Calls come from the whole dose curve; as a rule, active = well fitted inhibition curve with a large enough effect; inconclusive = small, poorly fitted or top-dose-only effect, or another doubt; inactive = no such curve, though single readings can be large or run the other way. Where the call is inconclusive, the potency comes from a doubtful curve fit.

test: Primary qHTS for delayed death inhibitors of the malarial parasite plastid, 48 hour incubation; conditions: P. falciparum luciferase growth in erythrocytes; series mostly up to 28.7 µM
Outline: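 Read-out is firefly luciferase luminescence from an integrated reporter in P. falciparum, so falling signal marks reduced parasite growth. Infected erythrocytes were at 2% hematocrit and 0.1% parasitemia (final) in Albumax-supplemented RPMI 1640.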
Potency is the fitted concentration of half-maximal effect; tags give direction and shape of the fitted curve.

| SMILES | Potency |
| --- | --- |
| CCOc1ccc(CCNC(=O)CS(=O)Cc2nc(-c3ccc(C)cc3)oc2C)cc1 (stereo unspecified) | inactive |
| CCCc1nc(C)c2c(=O)[nH]c(-c3cc(S(=O)(=O)N4CCN(CC)CC4)ccc3OCC)nn12 | inconclusive: 6.01 µM [inhibitor, partial curve] |
| NNC(=O)c1c(O)c2cccc3c2n(c1=O)CCC3 | inactive |
| COC(=O)C1=CN(c2cccc(C)c2)C=C(C(=O)OC)C1c1cc(OC)c(O)c([N+](=O)[O-])c1 | active: 8.28 µM |
| CCCC(C(=O)NC(C)(C)C)N(Cc1ccccc1Cl)C(=O)c1snc(C(N)=O)c1N (stereo unspecified) | inconclusive: 5.22 µM [inhibitor, partial curve] |
| CCOC(=O)c1sc(NC(=O)CSC(=S)N2CCN(C)CC2)nc1C | active: 8.28 µM |
| COc1ccc(/C=N\NC(=O)c2ccccc2F)cc1COc1ccc(F)cc1F | inconclusive: 11.7 µM [inhibitor, partial curve, poor fit] |
| O=C(Nc1ccc(Cl)cc1)Nc1nnc(/C=C/c2ccccc2)s1 | inconclusive: 11.7 µM [inhibitor, single point] |
| C=CCC(C(=O)NC(C)c1ccccc1)C(=O)NC(C)c1ccccc1 (stereo unspecified) | inactive |
| Cc1ccc(-n2c(SCC(=O)NCC3CCCO3)nc3ccccc3c2=O)cc1C (stereo unspecified) | inconclusive: 18.5 µM [inhibitor, single point] |
| Cc1ccc(Cn2ccsc2=NC(=O)COC(=O)c2ccc(O)cc2O)cc1 | inconclusive: 20.8 µM [inhibitor, partial curve, poor fit] |
| CN(CC(=O)Nc1c(Cl)cccc1Cl)C(=O)c1sccc1-c1ccccc1 | inconclusive: 10.4 µM [inhibitor, single point] |
| CCN(CC)S(=O)(=O)c1cccc(C(=O)N[C@@H](C)c2nc3ccccc3[nH]2)c1 | inconclusive: 18.5 µM [inhibitor, single point] |
| COCCN1C(=S)N[C@@H](c2cccc(F)c2)C(C(=O)OC)=C1C | inconclusive: 6.57 µM [inhibitor, partial curve, poor fit] and inconclusive: 14.7 µM [inhibitor, single point] |
| O=c1[nH]c2ccccc2n2cnnc12 | inactive |
| COc1cc(NC(=O)CCc2nnc3ccc(N4CCOCC4)nn23)cc(OC)c1OC | inconclusive: 20.8 µM [inhibitor, partial curve, poor fit] |
| COc1ccc(/C(C)=N/NC(=O)c2ccc(CSc3cccc4cccnc34)cc2)cc1OC | inconclusive: 18.5 µM [inhibitor, single point] |
| O=C(CC1CCCC1)Nc1ccc(Br)cc1 | inactive |
| Cc1ccccc1NC(NC(=O)OCCn1c([N+](=O)[O-])cnc1C)C(Cl)(Cl)Cl (stereo unspecified) | inconclusive: 9.28 µM [inhibitor, single point] |
| CCOc1ccc(-c2nc(-c3cccnc3)no2)cc1 | inactive |
| Cn1c(CC(=O)Nc2ccccc2)c(Sc2ccccc2)c2ccccc21 | inconclusive: 5.86 µM [inhibitor, partial curve, poor fit] |
| Cn1c(/C=C/c2ccccc2)nc2ccccc21 | inactive |
| CCCCNC(=O)CSc1nnc(Cc2ccc(Cl)c(Cl)c2)c(=O)[nH]1 | inactive |
| Cc1ccc(C2=C(c3ccc([N+](=O)[O-])cc3)C(=O)OC2)cc1C | inconclusive: 18.5 µM [inhibitor, single point] |

| SMILES | Potency |
| --- | --- |
| Nc1ccccc1SC(C[N+](=O)[O-])c1ccccc1 (stereo unspecified) | active: 4.15 µM |
| O=S(=O)(Cc1cc(-c2ccc(Cl)cc2)no1)c1ccccc1 | inactive |
| COc1ccc2cc(CCNC(=O)c3ccc(S(=O)(=O)N4CCOCC4)cc3)c(=O)[nH]c2c1 | active: 10.4 µM |
| CN(C)c1nc(N)nc(/C(C#N)=C/C2CC3C=CC2C3)n1 (stereo unspecified) | inconclusive: 0.465 µM [inhibitor, partial curve, poor fit] |
| O=C(/C=C/c1ccccc1)NC(NC(=S)Nc1ccc(Cl)cc1)C(Cl)(Cl)Cl (stereo unspecified) | active: 6.57 µM |
| Cc1cccc(OCCCCCn2ccnc2)c1C | inconclusive: 2.33 µM [inhibitor, full curve, poor fit] |
| CC(=O)Nc1nnc(Cc2c[nH]c3ccccc23)s1 | inactive |
| COc1ccc(C[C@@H]2CN3C(=NC[C@@H]3C)N2C[C@H](C)NC(=O)CCC2CCCCC2)cc1 | inconclusive: 16.5 µM [inhibitor, single point] |
| O=C(Nc1ncccc1O)c1ccc2c(c1)OCCO2 | inconclusive: 9.28 µM [inhibitor, single point] |
| CC(=O)c1sc(C(C)(C)C)cc1NC(=O)/C=C/C(=O)O | inconclusive: 1.17 µM [inhibitor, partial curve, poor fit] |
| CC(C)C(NC(=O)C1CCCCC1)C(=O)Nc1ccncc1 (stereo unspecified) | inconclusive: 18.5 µM [inhibitor, single point] |
| CCOC(=O)[C@H]1[C@H]2COc3ccc(Cl)cc3[C@@H]2N2C(=O)c3cc(Cl)ccc3NC(=O)[C@@]12C | inconclusive: 11.7 µM [inhibitor, single point] |
| CCc1nnc(N2CCN(c3ncnc4c3oc3ccccc34)CC2)s1 | inconclusive: 10.4 µM [inhibitor, single point] |
| Cc1cccc(-n2cnc(C(=O)NNC(=S)Nc3ccc(Cl)cc3)c2)n1 | inconclusive: 0.928 µM [inhibitor, partial curve, poor fit] |
| COc1ccc(/C=C2\SC(=O)N(CCC(=O)NCCCn3ccnc3)C2=O)cc1 | inactive |
| COc1cc(C=O)ccc1OCC(=O)N1CCCC1 | inactive |
| CC(=O)c1cccc(NC(=O)NC2CCCc3ccccc32)c1 (stereo unspecified) | inactive |
| CCOc1ccc(C2C(C#N)=C(N)N(c3sc4c(c3C#N)CCCC4)C3=C2C(=O)CCC3)cc1 (stereo unspecified) | inconclusive: 13.1 µM [inhibitor, partial curve, poor fit] |
| CC(C)C(=O)Nc1ccccc1N1CCN(C(=O)c2ccccc2)CC1 | inconclusive: 13.1 µM [inhibitor, single point] |
| CCOC(=O)c1cc(-c2ccc(C)cc2)n(CCC(=O)N2CCN(c3ccccn3)CC2)c1C | inconclusive: 11.7 µM [inhibitor, partial curve] |
| COc1ccc(-c2nn(C)c(=O)[nH]2)cc1 | inconclusive: 2.33 µM [inhibitor, single point] |
| O=C(O)CC(c1cccc2ccccc12)N1Cc2ccccc2C1=O (stereo unspecified) | inconclusive: 0.0029 µM [inhibitor, full curve, poor fit] |
| CCCc1nc2oc3c(N4CCNCC4)ncnc3c2c2c1CCCC2 | inconclusive: 0.0415 µM [inhibitor, full curve, poor fit] |
| CCN(CC)CCNC(=O)c1ccc(NC(=O)Nc2cccc3ccccc23)cc1 | active: 13.1 µM |

| SMILES | Potency |
| --- | --- |
| CCOC(=O)c1[nH]nc(N)c1NC(=O)c1ccc(Cl)cc1Cl | inactive |
| CNC(=S)NCCC(c1ccccc1)c1ccccc1 | inconclusive: 18.5 µM [inhibitor, single point] |
| O=C(CCCN1Cc2ccccc2C1)c1ccc(F)cc1 | inactive |
| COC(/C=C/Nc1ccc(Br)cc1)=C(C#N)C#N | inactive |
| O=C(NCCCN1CCOCC1)c1cccc(S(=O)(=O)NCc2ccccc2)c1 | inconclusive: 18.5 µM [inhibitor, single point] |
| Cn1sccc1=O | inconclusive: 13.1 µM [inhibitor, single point] |
| COC(=O)c1nnn(-c2ccccc2)c1N | inactive |
| Cc1cc(C)c(OCC(=O)Nc2cccc(NC(=O)c3ccco3)c2)c(Br)c1 | inconclusive: 18.5 µM [inhibitor, single point] |
| O=C(O)CCc1nc2ccccc2[nH]1 | inactive |
| CN(Cc1ccc(Cl)c(Cl)c1)C(=O)c1ccccc1SCC(=O)N1CCCC1 | inconclusive: 13.1 µM [inhibitor, single point] |
| COc1ccc(C(C)=O)cc1Cn1nc(C)c([N+](=O)[O-])c1C | active: 18.5 µM |
| S=C1SCN(Cc2ccccn2)CN1Cc1ccco1 | inconclusive: 4.15 µM [inhibitor, partial curve, poor fit] |
| CC(C)CCn1c(SCC(=O)c2ccccc2)nc2c1c(=O)[nH]c(=O)n2C | inactive |
| O=S(=O)(c1cccc(-c2nnc(-c3cccnc3)o2)c1)N1CCCCC1 | inconclusive: 18.5 µM [inhibitor, single point] |
| CCOC(=O)c1c(NC(=O)c2nn(CC)cc2Br)c(C#N)nn1-c1ccccc1 | active: 13.1 µM |
| O=C(CSc1nnc(COc2ccccc2)o1)NCCc1ccccc1 | inactive |
| Cc1ccc(C)c(S(=O)(=O)C(C#N)c2nc3ccccc3nc2N2CCCC2)c1 (stereo unspecified) | inconclusive: 11.7 µM [inhibitor, single point] |
| CC12C=CC3(CN(Cc4ccccc4)C(=O)C3C1C(=O)NC1CC1)O2 (stereo unspecified) | inconclusive: 10.4 µM [inhibitor, partial curve] |
| CCn1nnc2cc(C(=O)Nc3cccc(S(=O)(=O)N(C)C)c3)ccc21 | inconclusive: 18.5 µM [inhibitor, single point] |
| C[C@H](C(=O)NCc1ccccc1)C(=O)c1ccccc1 | inactive |
| CCOc1c(Cl)cc(CNc2nnnn2C)cc1OC | active: 5.86 µM |
| COC(=O)c1ccccc1NC(=O)C1CCCN(S(=O)(=O)c2ccc(OC)cc2)C1 (stereo unspecified) | inconclusive: 9.28 µM [inhibitor, partial curve, poor fit] |
| CCN(CC)c1ccc(NS(=O)(=O)c2ccc(-c3ccc(=O)[nH]n3)o2)c(C)c1 | inconclusive: 4.15 µM [inhibitor, single point] |
